Key:
[1] = test system: bipolar mania-induced mice; assay: Open field test in Amphetamine/Chlordiazepoxide-induced bipolar mania mouse model; settings: mania-induced mice (Amphetamine 2.5 mg/kg + Chlordiazepoxide 2.5 mg/kg i.p. 30 minutes after oral dose); test compound 5, 10 and 20 mg/kg, valproic acid 300 mg/kg; open field test for 30 minutes; one-way ANOVA p<0.05
normal mice = assay: Open field test in normal mice; type: in vivo, ICR mice; settings: single oral dose, test compound 5, 10 and 20 mg/kg, valproic acid 300 mg/kg, open field test for 30 minutes after 1 hour

behavior in open field test compared with the vehicle-administered negative control group (normal mice): did not significantly decrease
SMILES: CCCC(CCC)C(=O)O [valproic acid, reference compound]
behavior in open field test versus vehicle-treated negative control group (inhibition of increased behavior) [1]: confirmed the efficacy
